Measured values published in the supplement of paper PMC4967469.
A lower IC50 marks a more sensitive line; where the fit passes the top or lowest dose, that dose stands as a limit. For AUC the same curve is integrated over the 256-fold range of doses and scaled to a fraction; it is 1 without any effect and falls as sensitivity rises. For some of these results: Where the top dose is marked as inferred, it comes from the curve model; the source does not state it.

How the values were obtained:
Assay in all cases: Viability of human cancer cell lines after 72 h of drug (GDSC screen)
CCT018159 = compound: CCc1cc(-c2n[nH]c(C)c2-c2ccc3c(c2)OCCO3)c(O)cc1O [CCT018159]; settings: top dose 10 µM; top dose inferred
Experimental: (§1)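 Human cancer cell lines in 384-well plates, medium with 10% serum, drug for 72 h over a 256-fold dose range (nine 2-fold or five 4-fold steps up to the top dose). Adherent lines were fixed and stained with the nucleic acid dye Syto60, suspension lines read with resazurin; signal relative to control wells, capped at 0 and 100%. One two-parameter sigmoid per drug and line, fitted in a mixed model over all curves with the slope shared within a line.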

UNC1215 = compound: O=C(c1ccc(C(=O)N2CCC(N3CCCC3)CC2)c(Nc2ccccc2)c1)N1CCC(N2CCCC2)CC1 [UNC1215]; settings: top dose 1 µM; top dose inferred
Experimental: as §1

17-AAG = compound: C=CCNC1=C2C[C@@H](C)C[C@H](OC)[C@H](O)[C@@H](C)/C=C(\C)[C@H](OC(N)=O)[C@@H](OC)/C=C\C=C(/C)C(=O)NC(=CC1=O)C2=O [17-AAG]; settings: top dose 1 µM
Experimental: as §1

Vismodegib = compound: CS(=O)(=O)c1ccc(C(=O)Nc2ccc(Cl)c(-c3ccccn3)c2)c(Cl)c1 [Vismodegib]; settings: top dose 10 µM; top dose inferred
Experimental: as §1

OSI-027 = compound: COc1cccc2cc(-c3nc([C@H]4CC[C@H](C(=O)O)CC4)n4ncnc(N)c34)[nH]c12 [OSI-027]; settings: top dose 20 µM
Experimental: as §1

BIX02189 = compound: CN(C)Cc1cccc(N=C(c2ccccc2)c2c(O)[nH]c3cc(C(=O)N(C)C)ccc23)c1 [BIX02189]; settings: top dose 20 µM; top dose inferred
Experimental: as §1

VX-11e = compound: Cc1cnc(Nc2ccc(F)cc2Cl)nc1-c1c[nH]c(C(=O)N[C@H](CO)c2cccc(Cl)c2)c1 [VX-11e]; settings: top dose 5.12 µM; top dose inferred
Experimental: as §1

TG101348 = compound: Cc1cnc(Nc2ccc(OCCN3CCCC3)cc2)nc1Nc1cccc(S(=O)(=O)NC(C)(C)C)c1 [TG101348]; settings: top dose 10.24 µM
Experimental: as §1

Dimethyloxalylglycine = compound: COC(=O)CNC(=O)C(=O)OC [Dimethyloxalylglycine]; settings: top dose 4000 µM; top dose inferred
Experimental: as §1

MOLM-16 (acute myeloid leukaemia, suspension)
AUC (CCT018159): 0.741
IC50 (CCT018159): 2.75 µM
AUC (UNC1215): 0.986
IC50 (UNC1215): > 1 µM
AUC (17-AAG): 0.823
IC50 (17-AAG): 0.496 µM
AUC (Vismodegib): 0.952
IC50 (Vismodegib): > 10 µM

KNS-62 (lung squamous cell carcinoma, adherent)
AUC (CCT018159): 0.927
IC50 (CCT018159): > 10 µM
AUC (UNC1215): 0.96
IC50 (UNC1215): > 1 µM
AUC (17-AAG): 0.739
IC50 (17-AAG): 0.418 µM
AUC (Vismodegib): 0.959
IC50 (Vismodegib): > 10 µM

SK-MEL-31 (melanoma, adherent)
AUC (CCT018159): 0.985
IC50 (CCT018159): > 10 µM
AUC (UNC1215): 0.977
IC50 (UNC1215): > 1 µM
AUC (17-AAG): 0.923
IC50 (17-AAG): > 1 µM
AUC (Vismodegib): 0.985
IC50 (Vismodegib): > 10 µM

A431 (skin, adherent)
AUC (CCT018159): 0.93
IC50 (CCT018159): > 10 µM
AUC (UNC1215): 0.987
IC50 (UNC1215): > 1 µM
AUC (17-AAG): 0.561
IC50 (17-AAG): 0.0909 µM
AUC (OSI-027): 0.231
IC50 (OSI-027): 0.215 µM
AUC (BIX02189): 0.947
IC50 (BIX02189): > 20 µM
AUC (VX-11e): 0.876
IC50 (VX-11e): 4.73 µM
AUC (TG101348): 0.877
IC50 (TG101348): 9.53 µM
AUC (Dimethyloxalylglycine): 0.379
IC50 (Dimethyloxalylglycine): 118 µM

786-0 (kidney, adherent)
AUC (CCT018159): 0.766
IC50 (CCT018159): 3.41 µM
AUC (UNC1215): 0.986
IC50 (UNC1215): > 1 µM
AUC (17-AAG): 0.617
IC50 (17-AAG): 0.127 µM
AUC (OSI-027): 0.271
IC50 (OSI-027): 0.297 µM
AUC (BIX02189): 0.896
IC50 (BIX02189): > 20 µM
AUC (TG101348): 0.675
IC50 (TG101348): 1.89 µM
AUC (Dimethyloxalylglycine): 0.902
IC50 (Dimethyloxalylglycine): > 4000 µM

MM1S (myeloma, suspension)
AUC (CCT018159): 0.957
IC50 (CCT018159): > 10 µM
AUC (17-AAG): 0.973
IC50 (17-AAG): > 1 µM
AUC (Vismodegib): 0.986
IC50 (Vismodegib): > 10 µM

NCI-H1105 (small cell lung carcinoma, suspension)
AUC (UNC1215): 0.992
IC50 (UNC1215): > 1 µM
AUC (17-AAG): 0.993
IC50 (17-AAG): > 1 µM
AUC (Vismodegib): 0.989
IC50 (Vismodegib): > 10 µM

JEKO-1 (B-cell lymphoma, suspension)
AUC (CCT018159): 0.908
IC50 (CCT018159): > 10 µM
AUC (UNC1215): 0.972
IC50 (UNC1215): > 1 µM
AUC (17-AAG): 0.923
IC50 (17-AAG): > 1 µM
AUC (Vismodegib): 0.944
IC50 (Vismodegib): > 10 µM

MKN45 (stomach, adherent)
AUC (CCT018159): 0.917
IC50 (CCT018159): > 10 µM
AUC (UNC1215): 0.963
IC50 (UNC1215): > 1 µM
AUC (OSI-027): 0.697
IC50 (OSI-027): 5.24 µM
AUC (BIX02189): 0.982
IC50 (BIX02189): > 20 µM
AUC (Vismodegib): 0.972
IC50 (Vismodegib): > 10 µM
AUC (VX-11e): 0.866
IC50 (VX-11e): > 5.12 µM
AUC (TG101348): 0.951
IC50 (TG101348): > 10.2 µM
AUC (Dimethyloxalylglycine): 0.851
IC50 (Dimethyloxalylglycine): > 4000 µM

OCI-LY7 (B-cell lymphoma, suspension)
AUC (CCT018159): 0.847
IC50 (CCT018159): 4.46 µM
AUC (17-AAG): 0.955
IC50 (17-AAG): > 1 µM
AUC (Vismodegib): 0.971
IC50 (Vismodegib): > 10 µM

HCC70 (breast, adherent)
AUC (CCT018159): 0.949
IC50 (CCT018159): > 10 µM
AUC (UNC1215): 0.984
IC50 (UNC1215): > 1 µM
AUC (OSI-027): 0.752
IC50 (OSI-027): 6.51 µM
AUC (BIX02189): 0.884
IC50 (BIX02189): > 20 µM
AUC (Vismodegib): 0.949
IC50 (Vismodegib): > 10 µM
AUC (VX-11e): 0.921
IC50 (VX-11e): > 5.12 µM
AUC (TG101348): 0.917
IC50 (TG101348): > 10.2 µM
AUC (Dimethyloxalylglycine): 0.57
IC50 (Dimethyloxalylglycine): 386 µM

CML-T1 (chronic myeloid leukaemia, suspension)
AUC (CCT018159): 0.887
IC50 (CCT018159): 7.83 µM
AUC (UNC1215): 0.978
IC50 (UNC1215): > 1 µM
AUC (17-AAG): 0.97
IC50 (17-AAG): > 1 µM
AUC (Vismodegib): 0.964
IC50 (Vismodegib): > 10 µM

HOP-92 (large cell lung carcinoma, adherent)
AUC (CCT018159): 0.945
IC50 (CCT018159): > 10 µM
AUC (UNC1215): 0.964
IC50 (UNC1215): > 1 µM
AUC (OSI-027): 0.981
IC50 (OSI-027): > 20 µM
AUC (BIX02189): 0.98
IC50 (BIX02189): > 20 µM
AUC (Vismodegib): 0.983
IC50 (Vismodegib): > 10 µM
AUC (VX-11e): 0.979
IC50 (VX-11e): > 5.12 µM
AUC (TG101348): 0.985
IC50 (TG101348): > 10.2 µM
AUC (Dimethyloxalylglycine): 0.696
IC50 (Dimethyloxalylglycine): 981 µM

KG-1 (acute myeloid leukaemia, suspension)
AUC (CCT018159): 0.924
IC50 (CCT018159): > 10 µM
AUC (UNC1215): 0.98
IC50 (UNC1215): > 1 µM
AUC (17-AAG): 0.99
IC50 (17-AAG): > 1 µM
AUC (OSI-027): 0.092
IC50 (OSI-027): < 0.0781 µM
AUC (BIX02189): 0.603
IC50 (BIX02189): 2.32 µM
AUC (VX-11e): 0.931
IC50 (VX-11e): > 5.12 µM
AUC (TG101348): 0.44
IC50 (TG101348): 0.446 µM
AUC (Dimethyloxalylglycine): 0.333
IC50 (Dimethyloxalylglycine): 90.7 µM

BxPC-3 (pancreas, adherent)
AUC (CCT018159): 0.981
IC50 (CCT018159): > 10 µM
AUC (UNC1215): 0.982
IC50 (UNC1215): > 1 µM
AUC (17-AAG): 0.639
AUC (OSI-027): 0.791
IC50 (OSI-027): 10.2 µM
AUC (BIX02189): 0.92
IC50 (BIX02189): > 20 µM
AUC (VX-11e): 0.901
IC50 (VX-11e): > 5.12 µM
AUC (TG101348): 0.917
IC50 (TG101348): > 10.2 µM
AUC (Dimethyloxalylglycine): 0.626
IC50 (Dimethyloxalylglycine): 580 µM

KASUMI-1 (acute myeloid leukaemia, suspension)
AUC (CCT018159): 0.742
IC50 (CCT018159): 3.09 µM
AUC (UNC1215): 0.938
IC50 (UNC1215): > 1 µM
AUC (OSI-027): 0.125
IC50 (OSI-027): 0.0785 µM
AUC (Vismodegib): 0.956
IC50 (Vismodegib): > 10 µM
AUC (TG101348): 0.276
IC50 (TG101348): 0.147 µM
AUC (Dimethyloxalylglycine): 0.393
IC50 (Dimethyloxalylglycine): 127 µM

MOLT-13 (T-cell lymphoblastic leukaemia, suspension)
AUC (CCT018159): 0.979
IC50 (CCT018159): > 10 µM
AUC (UNC1215): 0.984
IC50 (UNC1215): > 1 µM
AUC (17-AAG): 0.99
IC50 (17-AAG): > 1 µM
AUC (OSI-027): 0.263
IC50 (OSI-027): 0.292 µM
AUC (BIX02189): 0.897
IC50 (BIX02189): 19.5 µM
AUC (VX-11e): 0.781
IC50 (VX-11e): 1.86 µM
AUC (TG101348): 0.509
IC50 (TG101348): 0.673 µM

COLO-205 (large intestine, suspension)
AUC (CCT018159): 0.985
IC50 (CCT018159): > 10 µM
AUC (UNC1215): 0.98
IC50 (UNC1215): > 1 µM
AUC (17-AAG): 0.425
IC50 (17-AAG): 0.039 µM
AUC (OSI-027): 0.663
IC50 (OSI-027): 3.53 µM
AUC (BIX02189): 0.95
IC50 (BIX02189): > 20 µM
AUC (VX-11e): 0.675
IC50 (VX-11e): 0.977 µM
AUC (TG101348): 0.829
IC50 (TG101348): 6.27 µM
AUC (Dimethyloxalylglycine): 0.878
IC50 (Dimethyloxalylglycine): 3980 µM

CAKI-1 (kidney, adherent)
AUC (CCT018159): 0.922
IC50 (CCT018159): > 10 µM
AUC (UNC1215): 0.966
IC50 (UNC1215): > 1 µM
AUC (OSI-027): 0.366
IC50 (OSI-027): 0.442 µM
AUC (BIX02189): 0.917
IC50 (BIX02189): > 20 µM
AUC (Vismodegib): 0.953
IC50 (Vismodegib): > 10 µM
AUC (VX-11e): 0.952
IC50 (VX-11e): > 5.12 µM
AUC (TG101348): 0.748
IC50 (TG101348): 4.83 µM
AUC (Dimethyloxalylglycine): 0.52
IC50 (Dimethyloxalylglycine): 291 µM

CCRF-CEM (lymphoblastic leukaemia, suspension)
AUC (CCT018159): 0.792
IC50 (CCT018159): 3.75 µM
AUC (UNC1215): 0.984
IC50 (UNC1215): > 1 µM
AUC (OSI-027): 0.197
IC50 (OSI-027): 0.193 µM
AUC (BIX02189): 0.847
IC50 (BIX02189): 11.3 µM
AUC (Vismodegib): 0.91
IC50 (Vismodegib): > 10 µM
AUC (VX-11e): 0.927
IC50 (VX-11e): > 5.12 µM
AUC (TG101348): 0.737
IC50 (TG101348): 2.65 µM
AUC (Dimethyloxalylglycine): 0.207
IC50 (Dimethyloxalylglycine): 41.4 µM
